Laboratory results from US7259004B1, “Endophytic streptomycetes from higher plants with biological activity” (Montana State University, priority 2002, dated 2007).
Read-outs that look alike come from different tables or passages of the source.

What was measured:
[1] = test system: Cell wall synthesis in Bacillus subtilis; experiment: macromolecular synthesis whole cell assay, [3H]N-acetyl glucosamine incorporation; format: cell-based; conditions: for % [3H]N-acetyl glucosamine (Cell wall synthesis) incorporation of that of the untreated culture: 1×MIC
[2] = test system: Human Primary Mammary Epithelial HMEC; experiment: CellTiter 96 Aqueous Non-Radioactive Cell Proliferation Assay; format: cell-based; conditions: Table 12
Procedure: (§1) The munumbicins were then tested against three human cancer cell lines (ATCC) and human primary mammary epithelial cells (HMECs) (Clonetics; Biowhittaker, Walkersville, Md.) using a CellTiter 96® Aqueous Non-Radioactive Cell Proliferation Assay kit from Promega (Madison, Wis.). The cell lines were A-549 (lung epithelial carcinoma, ATCC CCL-185), ME-180 (cervical epithelial epidermoid carcinoma, ATCC HTB-33), and BT-20 (breast epithelial cancer, ATCC HTB-19), and were grown in the media recommended by ATCC. The primary mammary cells were cultured as recommended by the manufacturer in mammary epithelial cell growth media (MEGM®). […] After seeding, the cells were incubated for five hours at 37° C. before addition of the munumbicins. Two-fold serial dilutions of the munumbicins were made in the culture medium, and a volume equal to that of the seeded cells for each dilution was added to three wells of cells. Each plate also contained some wells with cells plus medium only and some wells with medium only. […] The A-549 and ME-180 cells were incubated for 48 hours. […] The plates were incubated at 37° C. for one to four hours, and the OD490 was determined. The OD reading of all wells was corrected for background by subtracting the reading of wells containing medium only. […] Kakadumycin A was tested against three human cancer cell lines (ATCC) and human primary mammary epithelial cells using the procedure described above for the munumbicins. Kadadumycin B was tested against one human cancer cell line.

[3] = test system: Human Cervical Cancer Epithelial ME180; experiment: as above; format: cell-based; conditions: Table 12
Procedure: as §1

[4] = test system: Human Lung Cancer Epithelial A549; experiment: as above; format: cell-based; conditions: Table 12
Procedure: as §1

[5] = test system: Staphylococcus aureus ATCC 33591 (MRSA); experiment: microbroth dilution MIC; format: cell-based; conditions: Table 15
[6] = test system: Streptococcus pneumoniae ATCC 70676; experiment: microbroth dilution MIC; format: cell-based; conditions: Table 15
[7] = test system: DNA synthesis in Bacillus subtilis; experiment: macromolecular synthesis whole cell assay, [3H]thymidine incorporation; format: cell-based; conditions: for % [3H]thymidine (DNA synthesis) incorporation of that of the untreated culture: 1×MIC
S. aureus 29213 = experiment: microbroth dilution MIC; format: cell-based, Staphylococcus aureus; conditions: Table 15
[8] = test system: Protein synthesis in Bacillus subtilis; experiment: macromolecular synthesis whole cell assay, [3H]amino acid mixture incorporation; format: cell-based; conditions: for % [3H]amino acid mixture (Protein synthesis) incorporation of that of the untreated culture: 1×MIC
[9] = test system: Staphylococccus aureus 27734; experiment: microbroth dilution MIC; format: cell-based, Staphylococcus aureus; conditions: Table 15
[10] = test system: Streptococcus pneumoniae 49619; experiment: microbroth dilution MIC; format: cell-based; conditions: Table 15
E. faecalis 29212 = experiment: microbroth dilution MIC; format: cell-based, Enterococcus faecalis; conditions: Table 15
E. faecium 49624 = experiment: microbroth dilution MIC; format: cell-based, Enterococcus faecium; conditions: Table 15
[11] = test system: Listeria monocytogenes 19114; experiment: microbroth dilution MIC; format: cell-based; conditions: Table 15
[12] = test system: Listeria monocytogenes 19115; experiment: microbroth dilution MIC; format: cell-based; conditions: Table 15
S. aureus ATCC 6583P = experiment: MIC with and without double stranded DNA; format: cell-based, Staphylococcus aureus
[13] = test system: RNA synthesis in Bacillus subtilis; experiment: macromolecular synthesis whole cell assay, [3H]uridine incorporation; format: cell-based; conditions: for % [3H]uridine (RNA synthesis) incorporation of that of the untreated culture: 1×MIC
[14] = test system: Enterococcus faecalis ATCC 51299 (VRE); experiment: microbroth dilution MIC; format: cell-based; conditions: Table 15
[15] = test system: Streptococcus pneumoniae ATCC 70674; experiment: microbroth dilution MIC; format: cell-based; conditions: Table 15
S. epidermis 12228 = experiment: microbroth dilution MIC; format: cell-based, Staphylococcus epidermidis; conditions: Table 15
[16] = test system: Shigella dysenteriae ATCC 11835; experiment: microbroth dilution MIC; format: cell-based; conditions: Table 15
[17] = test system: Staphylococccus simulans 11631; experiment: microbroth dilution MIC; format: cell-based, Staphylococcus simulans; conditions: Table 15
[18] = test system: Staphylococcus aureus GISA, ATCC 700787; experiment: microbroth dilution MIC; format: cell-based; conditions: Table 15
B. subtilis 1A757 = format: cell-based, Bacillus subtilis
[19] = DNA +, 20 micrograms per well of sheared salmon sperm DNA

## kakadumycin A
[1]
  effect on cell wall synthesis (in words): to a lesser extent
[1]; 5 min
  % [3H]N-acetyl glucosamine (Cell wall synthesis) incorporation of that of the untreated culture: 65%
[1]; 10 min
  % [3H]N-acetyl glucosamine (Cell wall synthesis) incorporation of that of the untreated culture: 55%
[2]
  IC50 Human Primary Mammary Epithelial HMEC: 0.009 micrograms/ml
[3]
  IC50 Human Cervical Cancer Epthelial ME180: 0.024 micrograms/ml
[4]
  IC50 Human Lung Cancer Epithelial A549: 0.270 micrograms/ml
[5]
  MIC Staphylococcus aureus MRSA, ATCC 33591: 0.5 micrograms/ml
[6]
  MIC Streptococcus pneumoniae ATCC 70676: <0.0325 micrograms/ml
[7]
  effect on DNA synthesis (in words): no effect
[7]; 5 min
  % [3H]thymidine (DNA synthesis) incorporation of that of the untreated culture: 96%
[7]; 10 min
  % [3H]thymidine (DNA synthesis) incorporation of that of the untreated culture: 112%
S. aureus 29213
  MIC Staphylococcus aureus ATCC 29213: 0.25 micrograms/ml
[8]
  effect on protein synthesis (in words): to a lesser extent
[8]; 5 min
  % [3H]amino acid mixture (Protein synthesis) incorporation of that of the untreated culture: 71%
[8]; 10 min
  % [3H]amino acid mixture (Protein synthesis) incorporation of that of the untreated culture: 53%
[9]
  MIC Staphylococcus aureus ATCC 27734: 0.125 micrograms/ml
[10]
  MIC Streptococcus pneumoniae ATCC 49619: <0.0325 micrograms/ml
E. faecalis 29212
  MIC Enterococcus faecalis ATCC 29212: 0.062 micrograms/ml
E. faecium 49624
  MIC Enterococcus faecium ATCC 49624: 0.062 micrograms/ml
[11]
  MIC Listeria monocytogenes ATCC 19114: 0.25 micrograms/ml
[12]
  MIC Listeria monocytogenes ATCC 19115: 0.25 micrograms/ml
S. aureus ATCC 6583P; [19]
  MIC S. aureus ATCC 6583P: 16 micrograms/ml
S. aureus ATCC 6583P; DNA −
  MIC S. aureus ATCC 6583P: 0.25 micrograms/ml
[13]
  effect on RNA synthesis (in words): significantly inhibited
[13]; 5 min
  % [3H]uridine (RNA synthesis) incorporation of that of the untreated culture: 42%
[13]; 10 min
  % [3H]uridine (RNA synthesis) incorporation of that of the untreated culture: 38%
[14]
  MIC Enterococcus faecalis VRE, ATCC 51299: 0.062 micrograms/ml
[15]
  MIC Streptococcus pneumoniae ATCC 70674: <0.0325 micrograms/ml
S. epidermis 12228
  MIC Staphylococcus epidermidis ATCC 12228: 0.125 micrograms/ml
[16]
  MIC Shigella dysenteriae ATCC 11835: 4.0 micrograms/ml
Human red blood cells
  concentration causing detectable lysis of human red blood cells: > 80 micrograms/ml
[17]
  MIC Staphylococcus simulans ATCC 11631: 0.25 micrograms/ml
[18]
  MIC Staphylococcus aureus GISA, ATCC 700787: 0.5 micrograms/ml
B. subtilis 1A757; [19]
  MIC B. subtilis 1A757: 4 micrograms/ml
B. subtilis 1A757; DNA −
  MIC B. subtilis 1A757: 0.0625 micrograms/ml
